# The supplement of paper PMC3334620
# The full ranking holds about 33,000 sequences; the median of “E-score (-0.5 to 0.5)” is about -0.04, and the highest 2% start at about 0.36. Some of the results follow.
# Molecular target: T1, Hmlalpha2 (UniProt P0CY09)
# T1 sequence: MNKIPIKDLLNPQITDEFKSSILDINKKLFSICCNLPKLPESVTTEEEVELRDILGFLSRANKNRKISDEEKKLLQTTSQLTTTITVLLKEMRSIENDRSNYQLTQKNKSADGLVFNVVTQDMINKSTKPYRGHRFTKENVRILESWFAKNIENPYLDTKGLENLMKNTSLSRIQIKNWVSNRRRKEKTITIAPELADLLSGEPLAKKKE
# Test: PBM E-score (8-mer binding enrichment) (E-score (-0.5 to 0.5)); higher = stronger / more preferred TF binding; most listed sequences are background and not binding sites
# Conditions: protein concentration: 200 nM; construct: GST-full length
# Description: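 Universal 'all 10-mer' protein binding microarrays (Agilent AMADID 015681) probed with GST-tagged S. cerevisiae TFs (full-length or DBD) made by in vitro transcription/translation (PURExpress), about 100-200 nM. Bound TF was detected with fluorescent anti-GST. Each ungapped 8-mer (which stands for itself and its reverse complement) is scored by the PBM enrichment score (E-score), a modified Wilcoxon-Mann-Whitney statistic from -0.5 to +0.5, computed with the Universal PBM Analysis Suite. Scale: above 0.35 generally sequence-specific binding.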
row,Sequence,PBM E-score
1,GCCCCGAC,-0.247
2,GGTTATGA,0.0401
3,AAGCTCCC,-0.233
4,CAGGCTCA,-0.07
5,GGTGATCA,-0.103
6,TGTGGGAA,0.00853
7,CCGACCTC,-0.195
8,AATCATTG,0.103
9,CTCAGACA,-0.0237
10,AGCCTGAT,0.012
11,GGCGTCGA,-0.0196
12,ATCGTCCA,-0.237
13,ATACGCAC,0.297
14,ACTAATGC,0.0346
15,AAGAACTG,-0.178
16,ACGCCGTC,0.0115
17,CCCCACGG,-0.224
18,GGATTTAC,0.279
19,CTCAGATC,-0.171
20,GAAGGTAA,0.0918
21,GAATCTCA,-0.142
22,CTCTTCTA,-0.103

row,Sequence,PBM E-score
1,ACGTGCGG,-0.132
2,ATATCCTA,0.0663
3,GAGAAGGA,-0.232
4,CACTATAG,-0.0636
5,CCACGACC,-0.0888
6,GCTACATA,0.255
7,AGCTACTC,-0.068
8,AGCTCGGC,-0.0754
9,AAAATGGG,-0.186
10,CACATTAC,0.375
11,CGGTCATC,-0.204
12,AGCCACTA,-0.207
13,CGTGCAAA,0.172
14,CCAGATCC,-0.355
15,GGCAAACA,0.0111
16,ACTAATTG,-0.0219
17,ATATGAGA,-0.0168
18,CCCATTAG,-0.276
19,GAGAGTGC,-0.0884
20,ACGTCGAG,0.0652
21,GAACGTGC,-0.0535
22,CGTAGACG,0.0427

row,Sequence,PBM E-score
1,CGACGTAC,0.234
2,CGCCCTAC,-0.0898
3,AACAACTC,0.0384
4,GCGTGTAA,0.486
5,GGGCACAA,-0.252
6,ACGGTCCG,-0.182
7,GTCGAAGA,0.0307
8,GGGAGAGA,-0.33
9,CTCTAGAA,-0.166
10,AGCTTTAG,-0.075
11,CCTTGGGC,-0.362
12,TCATATAA,0.173
13,GTACATCA,0.288
14,CCACCAGA,-0.076
15,TAAATTCA,0.0489
16,AGCTGCCT,-0.324
17,ATCGAATA,0.0551
18,TAAGCTGA,0.0917
19,CAATCCAC,-0.0613
20,ACCGTGTA,0.473
21,AACCGGTA,-0.119
22,TAACCTAA,0.143

row,Sequence,PBM E-score
1,CTCACCAC,-0.153
2,CTGAAGAA,-0.319
3,ATAAACAT,0.383
4,GAATTGGC,-0.279
5,GTATGCAA,0.0956
6,CTGTAAGA,0.0715
7,CCGTCTAA,-0.156
8,AAGGCGAG,-0.25
9,GTTGAAAA,0.201
10,TAAGAGGA,-0.112
11,ATGGCCAC,-0.057
12,ATGAAAAT,0.209
13,AAAATTAC,0.285
14,CAGTTCAG,-0.19
15,CGTCCCAA,-0.11
16,GTTAACTA,0.362
17,CGCCGCGA,-0.142
18,CTCACCCC,-0.288
19,CATCTCCC,-0.286
20,GCAAAAAC,0.0786
21,AGGCCATG,0.0613
22,ACCTATAG,-0.177

row,Sequence,PBM E-score
1,CTCAAGAC,-0.11
2,TCAGTAAA,0.141
3,CCTCATAC,-0.00926
4,AGTGACTA,-0.0907
5,ACAGATGC,-0.0548
6,AACCGACT,-0.255
7,CGACTGCA,-0.14
8,AACAAACC,0.178
9,CAGGGAGC,-0.295
10,GAGGAGAA,-0.191
11,CATAACTA,0.0941
12,CTTAGCCA,-0.06
13,CGGGTACG,-0.222
14,CTCAGTGC,-0.158
15,CGCACAAG,-0.0655
16,AAAAGATT,-0.127
17,CAGAGCTA,-0.237
18,GGTGCCTA,-0.055
19,CAATACAA,0.256
20,CACATTTC,0.0774
21,AGTAACAC,0.288
